Data taken from patent US20240270821A1, “GIP/GLP1/GCG TRI-RECEPTOR AGONISTS AND USES THEREOF” (priority 2023, published 2024).
Read-outs that look alike come from different tables or passages of the source. Not every detail of the peptide structures is certain; ends, links or a residue may be inferred. At least one structure is not confirmed: it was looked up by name or label, or the drawing left a doubt. Starred links: 1 amine or outer side, 2 acyl side, 3 side chain; linkers in the order of their positions; H or OH if unused. Non-standard residues stand in square brackets, D forms with d. Residues, ends and D or L forms follow the SMILES beside them. Groups on a side chain read outwards from the residue. *: point of attachment. C18 diacid = O=C(O)CCCCCCCCCCCCCCCCC(=O)*; αMePhe(2-F) = C[C@](N)(Cc1ccccc1F)C(=O)O; γGlu = O=C(O)[C@H](CCC(=O)[*:2])N[*:1]; αMe4Pal = C[C@](N)(Cc1ccncc1)C(=O)O; 4Pal = N[C@@H](Cc1ccncc1)C(=O)O; αMeL = CC(C)C[C@](C)(N)C(=O)O; αMeS = C[C@](N)(CO)C(=O)O; Orn = NCCC[C@H](N)C(=O)O; Dab = NCC[C@H](N)C(=O)O; AEEA = NCCOCCOCC(=O)O; Aib = CC(C)(N)C(=O)O

Columns and labels:
Assay type in all cases: cell-based
hGIPR [1] = molecular target: T1, hGIPR (Homo sapiens, UniProt P48546); assay: Functional cAMP activity in the presence of 1% HSA; details: geometric mean of relative EC50, read-out: cAMP Rel EC50, hGIPR
T1 sequence (P48546 22-466): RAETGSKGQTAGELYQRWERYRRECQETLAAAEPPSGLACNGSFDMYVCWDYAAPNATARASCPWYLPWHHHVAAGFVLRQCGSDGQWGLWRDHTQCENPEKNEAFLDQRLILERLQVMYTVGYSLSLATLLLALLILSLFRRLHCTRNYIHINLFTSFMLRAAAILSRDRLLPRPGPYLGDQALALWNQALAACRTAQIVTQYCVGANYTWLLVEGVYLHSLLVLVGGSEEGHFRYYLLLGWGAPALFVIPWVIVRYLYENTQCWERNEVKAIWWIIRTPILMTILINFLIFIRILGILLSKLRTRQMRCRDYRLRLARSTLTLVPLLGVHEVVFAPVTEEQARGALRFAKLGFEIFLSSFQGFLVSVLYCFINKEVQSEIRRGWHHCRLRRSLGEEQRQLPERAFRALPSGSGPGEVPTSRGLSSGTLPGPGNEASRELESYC

hGcgR = hGcgR (Homo sapiens, UniProt P47871); assay: Functional cAMP activation in the presence of 0.1% casein (no HSA); details: in the presence of 0.1% casein (no HSA)
Sequence of hGcgR (P47871 26-477): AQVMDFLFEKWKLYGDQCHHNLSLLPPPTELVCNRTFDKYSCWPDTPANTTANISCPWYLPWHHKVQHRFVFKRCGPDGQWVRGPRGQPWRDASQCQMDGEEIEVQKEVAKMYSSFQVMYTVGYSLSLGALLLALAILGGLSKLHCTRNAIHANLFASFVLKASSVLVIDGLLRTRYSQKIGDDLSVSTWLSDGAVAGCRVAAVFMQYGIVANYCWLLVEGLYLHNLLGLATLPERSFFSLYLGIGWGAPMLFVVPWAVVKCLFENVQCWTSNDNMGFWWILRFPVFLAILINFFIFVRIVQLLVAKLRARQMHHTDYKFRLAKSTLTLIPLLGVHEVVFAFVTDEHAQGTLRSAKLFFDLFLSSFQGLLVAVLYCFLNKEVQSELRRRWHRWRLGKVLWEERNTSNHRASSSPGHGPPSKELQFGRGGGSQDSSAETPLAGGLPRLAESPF

hGLP-1R [2] = molecular target: T2, hGLP-1R (Homo sapiens, UniProt P43220); assay: as above; details: in the presence of 0.1% casein (no HSA)
T2 sequence (P43220 24-463): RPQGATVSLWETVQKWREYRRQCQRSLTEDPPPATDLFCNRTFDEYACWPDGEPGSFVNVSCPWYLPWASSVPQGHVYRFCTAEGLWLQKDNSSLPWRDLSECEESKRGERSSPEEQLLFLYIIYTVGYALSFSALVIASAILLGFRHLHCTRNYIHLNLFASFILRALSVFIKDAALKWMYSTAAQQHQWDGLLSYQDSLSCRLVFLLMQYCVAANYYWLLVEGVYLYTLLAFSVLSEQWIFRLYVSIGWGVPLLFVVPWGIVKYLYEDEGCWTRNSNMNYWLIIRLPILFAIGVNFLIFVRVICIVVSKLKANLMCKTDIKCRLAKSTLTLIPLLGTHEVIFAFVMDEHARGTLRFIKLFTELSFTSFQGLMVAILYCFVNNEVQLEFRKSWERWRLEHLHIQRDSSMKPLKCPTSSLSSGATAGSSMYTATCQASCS

human GcgR = human GcgR (Homo sapiens, UniProt P47871); assay: Functional cAMP activity in the presence of 1% HSA; details: geometric mean of relative EC50, read-out: cAMP Rel EC50, hGcgR
Sequence of human GcgR (P47871 26-477): as the sequence (P47871 26-477) above

hGLP-1R [3] = molecular target: T2, hGLP-1R; assay: Functional cAMP activity in the presence of 1% HSA; details: geometric mean of relative EC50, read-out: cAMP Rel EC50, hGLP-1R
hGIPR [4] = molecular target: T1, hGIPR; assay: Functional cAMP activation in the presence of 0.1% casein (no HSA); details: in the presence of 0.1% casein (no HSA)
[5] = HEK-293 clonal cells expressing hGIPR, in the presence of 1% HSA
[6] = geometric mean, read-out: Relative cAMP EC50, hGcgR
[7] = geometric mean, read-out: Relative cAMP EC50, hGLP-1R
[8] = HEK-293 clonal cells expressing hGcgR, in the presence of 1% HSA
[9] = HEK-293 clonal cells expressing hGLP-1R, in the presence of 1% HSA
[10] = geometric mean, read-out: Relative cAMP EC50, hGIPR
[11] = HEK-293 clonal cell line, 1% HSA
[12] = geometric mean of relative EC50
[13] = HEK-293 clonal cell line, in the presence of 1% HSA

Row | Compound | EC50 (hGIPR [1]; [5]) | EC50 (hGcgR; [6]) | EC50 (hGLP-1R [2]; [7]) | EC50 (human GcgR; [8]) | EC50 (hGLP-1R [3]; [9]) | EC50 (hGIPR [4]; [10]) | EC50 (hGIPR [1]; [11]) | EC50 (hGcgR; [12]) | EC50 (hGLP-1R [2]; [12]) | EC50 (human GcgR; [11]) | EC50 (hGLP-1R [3]; [11]) | EC50 (hGIPR [4]; [12]) | EC50 (hGIPR [1]; [13]) | EC50 (human GcgR; [13]) | EC50 (hGLP-1R [3]; [13])
1 | CC[C@H](C)[C@H](NC(=O)[C@H](Cc1ccccc1)NC(=O)[C@H](C)NC(=O)C(C)(C)NC(=O)[C@H](CCC(N)=O)NC(=O)[C@H](C)NC(=O)[C@H](CCCCNC(=O)COCCOCCNC(=O)CC[C@H](NC(=O)CCCCCCCCCCCCCCCCC(=O)O)C(=O)O)NC(=O)[C@H](CCCCN)NC(=O)[C@H](CC(=O)O)NC(=O)[C@H](CC(C)C)NC(=O)[C@](C)(CC(C)C)NC(=O)[C@H](CCCN)NC(=O)[C@H](CO)NC(=O)[C@H](Cc1ccccc1)NC(=O)[C@H](CC(=O)O)NC(=O)[C@H](CO)NC(=O)[C@@H](NC(=O)[C@H](Cc1ccccc1)NC(=O)[C@@H](NC(=O)CNC(=O)[C@H](CCC(N)=O)NC(=O)C(C)(C)NC(=O)[C@@H](N)Cc1ccc(O)cc1)[C@@H](C)O)[C@@H](C)O)C(=O)N[C@@H](CCC(=O)O)C(=O)N[C@@H](Cc1c[nH]c2ccccc12)C(=O)N[C@@H](CC(C)C)C(=O)N[C@@H](CC(C)C)C(=O)N[C@@H](CCC(=O)O)C(=O)NCC(=O)NCC(=O)N1CCC[C@H]1C(=O)N[C@@H](CO)C(=O)N[C@@H](CO)C(=O)NCC(=O)N[C@@H](C)C(=O)N1CCC[C@H]1C(=O)N1CCC[C@H]1C(=O)N1C[C@H](O)C[C@H]1C(=O)N[C@@H](CO)C(=O)NCC(=O)N[C@@H](CCC(=O)O)C(N)=O [Example 138] | 40.1 nM | 4.79 nM | 3.54 nM | 1480 nM | 657 nM | 0.262 nM |  |  |  |  |  |  |  |  | 
2 | CC[C@H](C)[C@H](NC(=O)[C@H](Cc1ccccc1)NC(=O)[C@H](CCCN)NC(=O)C(C)(C)NC(=O)[C@H](CCC(N)=O)NC(=O)[C@H](C)NC(=O)[C@H](CCCCNC(=O)COCCOCCNC(=O)CC[C@H](NC(=O)CCCCCCCCCCCCCCCCC(=O)O)C(=O)O)NC(=O)[C@H](CCCN)NC(=O)[C@H](CC(=O)O)NC(=O)[C@H](CC(C)C)NC(=O)[C@](C)(CC(C)C)NC(=O)[C@@H](NC(=O)[C@](C)(CO)NC(=O)[C@H](Cc1ccc(O)cc1)NC(=O)[C@H](CC(=O)O)NC(=O)[C@H](CO)NC(=O)[C@@H](NC(=O)[C@](C)(Cc1ccccc1F)NC(=O)[C@@H](NC(=O)CNC(=O)[C@H](CCC(N)=O)NC(=O)C(C)(C)NC(=O)[C@@H](N)Cc1ccc(O)cc1)[C@@H](C)O)[C@@H](C)O)[C@@H](C)CC)C(=O)N[C@@H](CCC(=O)O)C(=O)N[C@@H](Cc1ccc(O)cc1)C(=O)N[C@@H](CC(C)C)C(=O)N[C@@H](CC(C)C)C(=O)N[C@@H](CCC(=O)O)C(=O)NCC(=O)NCC(=O)N1CCC[C@H]1C(=O)N[C@@H](CO)C(=O)N[C@@H](CO)C(=O)NCC(=O)N[C@@H](C)C(=O)N1CCC[C@H]1C(=O)N1CCC[C@H]1C(=O)N1CCC[C@H]1C(=O)N[C@@H](CO)C(N)=O [Example 384] (H-Y[Aib]QGT[αMePhe(2-F)]TSDY[αMeS]I[αMeL]LD[Orn]K([AEEA-γGlu-C18 diacid])AQ[Aib][Orn]FIEYLLEGGPSSGAPPPS-NH2; C-terminus assumed) | 3.63 nM | 5.77 nM | 0.133 nM | 1730 nM | 19.3 nM | 0.0152 nM |  |  |  |  |  |  |  |  | 
3 | CC[C@H](C)[C@H](NC(=O)[C@H](CC(C)C)NC(=O)[C@](C)(Cc1ccncc1)NC(=O)[C@H](CCC(=O)O)NC(=O)[C@@H](NC(=O)[C@H](Cc1ccccc1)NC(=O)[C@H](C)NC(=O)[C@](C)(Cc1ccncc1)NC(=O)[C@H](CCC(N)=O)NC(=O)[C@H](C)NC(=O)[C@H](CCCCNC(=O)COCCOCCNC(=O)CC[C@H](NC(=O)CCCCCCCCCCCCCCCCC(=O)O)C(=O)O)NC(=O)[C@H](CCCCN)NC(=O)[C@H](CC(=O)O)NC(=O)[C@H](CC(C)C)NC(=O)[C@](C)(CC(C)C)NC(=O)[C@H](CCC(N)=O)NC(=O)[C@H](CO)NC(=O)[C@H](Cc1ccncc1)NC(=O)[C@H](CC(=O)O)NC(=O)[C@H](CO)NC(=O)[C@@H](NC(=O)[C@H](Cc1ccccc1)NC(=O)[C@@H](NC(=O)CNC(=O)[C@H](CCC(N)=O)NC(=O)C(C)(C)NC(=O)[C@@H](N)Cc1ccc(O)cc1)[C@@H](C)O)[C@@H](C)O)[C@@H](C)CC)C(=O)N[C@@H](CCC(=O)O)C(=O)NC(C)(C)C(=O)NCC(=O)N1CCC[C@H]1C(=O)N[C@@H](CO)C(=O)N[C@@H](CO)C(=O)NCC(=O)N[C@@H](C)C(=O)N1CCC[C@H]1C(=O)N1CCC[C@H]1C(=O)N1CCC[C@H]1C(=O)N[C@@H](CO)C(=O)NCC(=O)N[C@@H](CO)C(N)=O [Example 498] |  |  |  |  |  |  | 4.7 nM | 4.11 nM | 1.53 nM | 257 nM | 196 nM | 0.0711 nM |  |  | 
4 | CC[C@H](C)[C@H](NC(=O)[C@H](Cc1ccccc1)NC(=O)[C@H](C)NC(=O)C(C)(C)NC(=O)[C@H](CCC(N)=O)NC(=O)[C@H](C)NC(=O)[C@H](CCCCNC(=O)COCCOCCNC(=O)CC[C@H](NC(=O)CCCCCCCCCCCCCCCCC(=O)O)C(=O)O)NC(=O)[C@H](CCCCN)NC(=O)[C@H](CC(=O)O)NC(=O)[C@H](CC(C)C)NC(=O)[C@](C)(CC(C)C)NC(=O)[C@H](CCC(N)=O)NC(=O)[C@H](CO)NC(=O)[C@H](Cc1ccncc1)NC(=O)[C@H](CC(=O)O)NC(=O)[C@H](CO)NC(=O)[C@@H](NC(=O)[C@H](Cc1ccccc1)NC(=O)[C@@H](NC(=O)CNC(=O)[C@H](CCC(N)=O)NC(=O)C(C)(C)NC(=O)[C@@H](N)Cc1ccc(O)cc1)[C@@H](C)O)[C@@H](C)O)C(=O)N[C@@H](CCC(=O)O)C(=O)N[C@@H](Cc1ccc(O)cc1)C(=O)N[C@@H](CC(C)C)C(=O)N[C@@H](CC(C)C)C(=O)N[C@@H](CCC(=O)O)C(=O)N[C@H](C)C(=O)NCC(=O)N1CCC[C@H]1C(=O)N[C@@H](CO)C(=O)N[C@@H](CO)C(=O)NCC(=O)N[C@@H](C)C(=O)N1CCC[C@H]1C(=O)N1CCC[C@H]1C(=O)N1CCC[C@H]1C(=O)N[C@@H](CO)C(=O)NCC(=O)N[C@H](C(=O)O)[C@@H](C)O [Example 823] |  | 7.75 nM | 2.96 nM |  |  | 0.171 nM |  |  |  |  |  |  | 25.6 nM | 1410 nM | 421 nM
5 | CC[C@H](C)[C@H](NC(=O)[C@H](CC(C)C)NC(=O)[C@](C)(Cc1ccncc1)NC(=O)[C@H](CCC(=O)O)NC(=O)[C@@H](NC(=O)[C@H](Cc1ccccc1)NC(=O)[C@H](C)NC(=O)[C@](C)(Cc1ccncc1)NC(=O)[C@H](CCC(N)=O)NC(=O)[C@H](C)NC(=O)[C@H](CCCCNC(=O)COCCOCCNC(=O)CC[C@H](NC(=O)CCCCCCCCCCCCCCCCC(=O)O)C(=O)O)NC(=O)[C@H](CCCCN)NC(=O)[C@H](CC(=O)O)NC(=O)[C@H](CC(C)C)NC(=O)[C@](C)(CC(C)C)NC(=O)[C@H](CCC(N)=O)NC(=O)[C@H](CO)NC(=O)[C@H](Cc1ccncc1)NC(=O)[C@H](CC(=O)O)NC(=O)[C@H](CO)NC(=O)[C@@H](NC(=O)[C@H](Cc1ccccc1)NC(=O)[C@@H](NC(=O)CNC(=O)[C@H](CCC(N)=O)NC(=O)C(C)(C)NC(=O)[C@@H](N)Cc1ccc(O)cc1)[C@@H](C)O)[C@@H](C)O)[C@@H](C)CC)C(=O)N[C@@H](CCC(=O)O)C(=O)NC(C)(C)C(=O)NCC(=O)N1CCC[C@H]1C(=O)N[C@@H](CO)C(=O)N[C@@H](CO)C(=O)NCC(=O)N[C@@H](C)C(=O)N1CCC[C@H]1C(=O)N1CCC[C@H]1C(=O)N1CCC[C@H]1C(=O)N[C@@H](CO)C(=O)NCC(=O)N[C@@H](CO)C(N)=O [Example 917] |  | 3.61 nM | 1.52 nM |  |  | 0.0724 nM |  |  |  |  |  |  |  | 424 nM | 195 nM
6 | H-Y[Aib]QGTFTSDFS[Orn][αMeL]LD[Orn]K([γGlu-γGlu-C18 diacid])AQ[Aib]AFIEYLLAGGPSSGAPPPSGSEE-NH2 [Example 1052] |  | 7.41 nM | 3.16 nM |  |  | 0.167 nM |  |  |  |  |  |  |  | 1980 nM | 
7 | H-Y[Aib]QGTFTSD[4Pal]S[Dab][αMeL]LD[Orn]K([γGlu-γGlu-C18 diacid])AQ[Aib]AFIE[αMe4Pal]LLAGGPSSGAPPPEGSEE-NH2 [Example 1054] |  | 8.06 nM | 9.53 nM |  |  | 0.797 nM |  |  |  |  |  |  | 79.4 nM | 1630 nM | 
